Reference: the supplement of paper PMC6089552
The campaign covered roughly 3,200 compounds. About 300 (9.4%) showed activity. The list shows a part of the results, in another mix than the full data.

Tested on: A673/TR/shEF
Experiment: cell viability (LOESS-normalised, relative to median of negative controls) (log2 ratio); higher = more viable cells (less compound effect), active = hit call of the paper (over 3 MAD below the median)
Details: treatment time: 72 h
In short: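 A673/TR/shEF Ewing sarcoma cells were plated at 1,500 per well in 384-well plates and cultured with or without doxycycline, added 24 h before compounds, to induce EWS-FLI1 shRNA knockdown. Library compounds at two or more concentrations, alongside DMSO controls, were applied for three days. Cell viability was measured by CellTiter-Glo luminescence on an Envision reader. Readings were LOESS-corrected per plate, divided by the median of negative controls and log2-transformed, and hits were wells lying at least three median absolute deviations from the median of all screened wells.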

[1] = 0.025 µM, library screen: screen2, EWS-FLI1 expression: high (no doxycycline)
[2] = 0.025 µM, library screen: screen2, EWS-FLI1 expression: low (doxycycline-induced shRNA knockdown)
[3] = 0.25 µM, library screen: screen2, EWS-FLI1 expression: high (no doxycycline)
[4] = 0.25 µM, library screen: screen2, EWS-FLI1 expression: low (doxycycline-induced shRNA knockdown)
[5] = 2.5 µM, library screen: screen2, EWS-FLI1 expression: high (no doxycycline)
[6] = 2.5 µM, library screen: screen2, EWS-FLI1 expression: low (doxycycline-induced shRNA knockdown)
[7] = 25 µM, library screen: screen2, EWS-FLI1 expression: high (no doxycycline)
[8] = 25 µM, library screen: screen2, EWS-FLI1 expression: low (doxycycline-induced shRNA knockdown)
[9] = 0.103 µM, library screen: screen3, EWS-FLI1 expression: high (no doxycycline)
[10] = 0.103 µM, library screen: screen3, EWS-FLI1 expression: low (doxycycline-induced shRNA knockdown)
[11] = 0.308 µM, library screen: screen3, EWS-FLI1 expression: high (no doxycycline)
[12] = 0.308 µM, library screen: screen3, EWS-FLI1 expression: low (doxycycline-induced shRNA knockdown)
[13] = 0.926 µM, library screen: screen3, EWS-FLI1 expression: high (no doxycycline)
[14] = 0.926 µM, library screen: screen3, EWS-FLI1 expression: low (doxycycline-induced shRNA knockdown)
[15] = 2.8 µM, library screen: screen3, EWS-FLI1 expression: high (no doxycycline)
[16] = 2.8 µM, library screen: screen3, EWS-FLI1 expression: low (doxycycline-induced shRNA knockdown)
[17] = 8.3 µM, library screen: screen3, EWS-FLI1 expression: high (no doxycycline)
[18] = 8.3 µM, library screen: screen3, EWS-FLI1 expression: low (doxycycline-induced shRNA knockdown)
[19] = 25 µM, library screen: screen3, EWS-FLI1 expression: high (no doxycycline)
[20] = 25 µM, library screen: screen3, EWS-FLI1 expression: low (doxycycline-induced shRNA knockdown)
[21] = 0.25 µM, library screen: screen1, EWS-FLI1 expression: high (no doxycycline)
[22] = 0.25 µM, library screen: screen1, EWS-FLI1 expression: low (doxycycline-induced shRNA knockdown)
[23] = 2.5 µM, library screen: screen1, EWS-FLI1 expression: high (no doxycycline)
[24] = 2.5 µM, library screen: screen1, EWS-FLI1 expression: low (doxycycline-induced shRNA knockdown)

## O=c1c2ccccc2[nH]c2ccccc12
[1]
  cell viability (log2): inactive: 0.0276
[2]
  cell viability (log2): inactive: 0.00968
[3]
  cell viability (log2): inactive: 0.0984
[4]
  cell viability (log2): inactive: -0.0475
[5]
  cell viability (log2): inactive: 0.133
[6]
  cell viability (log2): inactive: 0.0137
[7]
  cell viability (log2): inactive: 0.0105
[8]
  cell viability (log2): inactive: -0.000171

## CN1CCN2c3ccccc3Cc3ccccc3C2C1 (centres undefined)
[9]
  cell viability (log2): inactive: 0.00273
[10]
  cell viability (log2): inactive: 0.0342
[3]
  cell viability (log2): inactive: 0.152
[4]
  cell viability (log2): inactive: 0.0884
[11]
  cell viability (log2): inactive: -0.0924
[12]
  cell viability (log2): inactive: 0.0198
[13]
  cell viability (log2): inactive: -0.015
[14]
  cell viability (log2): inactive: -0.00365
[5]
  cell viability (log2): inactive: 0.0952
[6]
  cell viability (log2): inactive: 0.112
[15]
  cell viability (log2): inactive: 2.2e-06
[16]
  cell viability (log2): inactive: -0.00496
[17]
  cell viability (log2): inactive: 0.0301
[18]
  cell viability (log2): inactive: 0.0611
[19]
  cell viability (log2): inactive: 0.0459
[20]
  cell viability (log2): inactive: 0.00696

## N[C@@H](Cc1ccc(O)c(O)c1)C(=O)O
[9]
  cell viability (log2): inactive: 0.0249
[10]
  cell viability (log2): inactive: 0.0537
[21]
  cell viability (log2): inactive: 0.089
[22]
  cell viability (log2): inactive: 0.0839
[3]
  cell viability (log2): inactive: 0.0601
[4]
  cell viability (log2): inactive: 0.041
[11]
  cell viability (log2): inactive: 0.142
[12]
  cell viability (log2): inactive: 0.082
[13]
  cell viability (log2): inactive: 0.0359
[14]
  cell viability (log2): inactive: 0.0472
[23]
  cell viability (log2): inactive: 0.208
[24]
  cell viability (log2): inactive: 0.085
[5]
  cell viability (log2): inactive: 0.0538
[6]
  cell viability (log2): inactive: 0.0939
[15]
  cell viability (log2): inactive: 0.121
[16]
  cell viability (log2): inactive: 0.0993
[17]
  cell viability (log2): inactive: 0.0567
[18]
  cell viability (log2): inactive: 0.0427
[19]
  cell viability (log2): inactive: 0.106
[20]
  cell viability (log2): inactive: 0.117

## CCOC(=O)C1=C(C)NC(C)=C(C(=O)OC)C1c1cccc(Cl)c1Cl (centres undefined)
[9]
  cell viability (log2): inactive: 0.188
[10]
  cell viability (log2): inactive: -0.0247
[3]
  cell viability (log2): inactive: 0.0436
[4]
  cell viability (log2): inactive: 0.0605
[11]
  cell viability (log2): inactive: 0.0751
[12]
  cell viability (log2): inactive: 0.0708
[13]
  cell viability (log2): inactive: 0.111
[14]
  cell viability (log2): inactive: 0.074
[5]
  cell viability (log2): inactive: 0.171
[6]
  cell viability (log2): inactive: 0.0778
[15]
  cell viability (log2): inactive: 0.149
[16]
  cell viability (log2): inactive: 0.0833
[17]
  cell viability (log2): inactive: 0.107
[18]
  cell viability (log2): inactive: 0.0632
[19]
  cell viability (log2): inactive: 0.139
[20]
  cell viability (log2): inactive: 0.152

## Cc1nc2sccn2c(=O)c1CCN1CCC(=C(c2ccc(F)cc2)c2ccc(F)cc2)CC1
[21]
  cell viability (log2): inactive: 0.091
[22]
  cell viability (log2): inactive: 0.0157
[3]
  cell viability (log2): inactive: 0.116
[4]
  cell viability (log2): inactive: 0.093
[23]
  cell viability (log2): inactive: 0.026
[24]
  cell viability (log2): inactive: 0.1
[5]
  cell viability (log2): inactive: 0.0995
[6]
  cell viability (log2): inactive: 0.149

## CO[C@H]1C[C@H](O[C@@H]2/C(C)=C/C[C@@H]3C[C@@H](C[C@]4(CC[C@H](C)[C@@H](C5CCCCC5)O4)O3)OC(=O)[C@@H]3C=C(C)/C(=N/O)[C@H]4OC/C(=C\C=C\[C@@H]2C)[C@]43O)O[C@@H](C)[C@@H]1O
[21]
  cell viability (log2): inactive: 0.0971
[22]
  cell viability (log2): inactive: 0.0732
[23]
  cell viability (log2): inactive: 0.0965
[24]
  cell viability (log2): inactive: 0.0106

## C[C@H](CCC(=O)O)[C@H]1CC[C@H]2[C@@H]3C(=O)C[C@@H]4CC(=O)CC[C@]4(C)[C@H]3CC(=O)[C@]12C
[21]
  cell viability (log2): inactive: 0.11
[22]
  cell viability (log2): inactive: 0.0437
[23]
  cell viability (log2): inactive: 0.164
[24]
  cell viability (log2): inactive: 0.0419

## O=C1c2c(O)ccc(O)c2C(=O)c2c(NCCNCCO)ccc(NCCNCCO)c21
[9]
  cell viability (log2): active: -0.962
[10]
  cell viability (log2): active: -0.246
[21]
  cell viability (log2): active: -1.93
[22]
  cell viability (log2): active: -0.576
[3]
  cell viability (log2): active: -2.25
[4]
  cell viability (log2): active: -0.221
[11]
  cell viability (log2): active: -1.25
[12]
  cell viability (log2): active: -0.351
[13]
  cell viability (log2): active: -1.51
[14]
  cell viability (log2): active: -0.325
[23]
  cell viability (log2): active: -4.22
[24]
  cell viability (log2): active: -3.67
[5]
  cell viability (log2): active: -2.87
[6]
  cell viability (log2): active: -0.985
[15]
  cell viability (log2): active: -2.02
[16]
  cell viability (log2): active: -0.758
[17]
  cell viability (log2): active: -3.96
[18]
  cell viability (log2): active: -3.09
[19]
  cell viability (log2): active: -4.26
[20]
  cell viability (log2): active: -4.25

## CCN1C(=O)C=CC1=O
[3]
  cell viability (log2): inactive: 0.0966
[4]
  cell viability (log2): inactive: 0.079
[5]
  cell viability (log2): inactive: 0.138
[6]
  cell viability (log2): inactive: 0.057

## COc1cc(O)cc(OC)c1OC
[21]
  cell viability (log2): inactive: 0.0343
[22]
  cell viability (log2): inactive: 0.0156
[23]
  cell viability (log2): inactive: 0.173
[24]
  cell viability (log2): inactive: 0.0956

## C[N+](C)(C)CCOC(N)=O
[21]
  cell viability (log2): inactive: 0.175
[22]
  cell viability (log2): inactive: 0.136
[3]
  cell viability (log2): inactive: 0.265
[4]
  cell viability (log2): inactive: 0.0997
[23]
  cell viability (log2): inactive: 0.189
[24]
  cell viability (log2): inactive: 0.23
[5]
  cell viability (log2): inactive: 0.197
[6]
  cell viability (log2): inactive: 0.12

## COC(=O)C[C@H]1C2(C)CC34OC5(C)O[C@@]6([C@H](OC)C(OC(=O)C(C)C)[C@]7(C)C(/C(=C(/OC)C(C)C)C(=O)O[C@H]7c7ccoc7)[C@@]6(O5)[C@H](OC)[C@@]3(OC)C2OC(C)=O)[C@]14C (some centres undefined)
[21]
  cell viability (log2): inactive: 0.14
[22]
  cell viability (log2): inactive: 0.13
[23]
  cell viability (log2): inactive: 0.0986
[24]
  cell viability (log2): inactive: 0.154

## Cc1ccc(Nc2nccc(N(C)c3ccc4c(C)n(C)nc4c3)n2)cc1S(N)(=O)=O
[9]
  cell viability (log2): inactive: -0.00021
[10]
  cell viability (log2): inactive: 0.0417
[11]
  cell viability (log2): inactive: 0.0983
[12]
  cell viability (log2): inactive: 0.0646
[13]
  cell viability (log2): inactive: 0.0364
[14]
  cell viability (log2): inactive: 0.00608
[15]
  cell viability (log2): inactive: 0.0526
[16]
  cell viability (log2): inactive: 0.0214
[17]
  cell viability (log2): inactive: 0.1
[18]
  cell viability (log2): inactive: -0.0412
[19]
  cell viability (log2): inactive: 0.0612
[20]
  cell viability (log2): inactive: 0.0126

## CCN(CC)CCNC(=O)c1cc(Br)c(N)cc1OC
[21]
  cell viability (log2): inactive: 0.0664
[22]
  cell viability (log2): inactive: 0.126
[23]
  cell viability (log2): inactive: 0.0877
[24]
  cell viability (log2): inactive: 0.0941

## OC(CCN1CCCCC1)(c1ccccc1)c1ccccc1
[21]
  cell viability (log2): inactive: 0.047
[22]
  cell viability (log2): inactive: 0.109
[23]
  cell viability (log2): inactive: 0.0827
[24]
  cell viability (log2): inactive: 0.136

## COc1ccc2c(c1)O[C@H]1c3ccc(O)cc3OC[C@@H]21
[21]
  cell viability (log2): inactive: 0.225
[22]
  cell viability (log2): inactive: 0.129
[23]
  cell viability (log2): inactive: 0.184
[24]
  cell viability (log2): inactive: 0.206

## O=c1cc(N2CCOCC2)oc2c(-c3ccccc3)cccc12
0.025 µM, library screen: screen1, EWS-FLI1 expression: high (no doxycycline)
  cell viability (log2): inactive: 0.213
0.025 µM, library screen: screen1, EWS-FLI1 expression: low (doxycycline-induced shRNA knockdown)
  cell viability (log2): inactive: 0.0453
[21]
  cell viability (log2): inactive: 0.204
[22]
  cell viability (log2): inactive: 0.0333
[3]
  cell viability (log2): inactive: 0.135
[4]
  cell viability (log2): inactive: 0.11
[23]
  cell viability (log2): active: -0.134
[24]
  cell viability (log2): inactive: 0.0932
[5]
  cell viability (log2): inactive: 0.15
[6]
  cell viability (log2): inactive: 0.0123
25 µM, library screen: screen1, EWS-FLI1 expression: high (no doxycycline)
  cell viability (log2): active: -0.489
25 µM, library screen: screen1, EWS-FLI1 expression: low (doxycycline-induced shRNA knockdown)
  cell viability (log2): active: -0.462

## CCOC(N)=O
[1]
  cell viability (log2): inactive: 0.095
[2]
  cell viability (log2): inactive: 0.0554
[21]
  cell viability (log2): inactive: 0.0929
[22]
  cell viability (log2): inactive: 0.0358
[3]
  cell viability (log2): inactive: 0.159
[4]
  cell viability (log2): inactive: -0.00215
[23]
  cell viability (log2): inactive: 0.118
[24]
  cell viability (log2): inactive: 0.0386
[5]
  cell viability (log2): inactive: 0.0866
[6]
  cell viability (log2): inactive: 0.0762
[7]
  cell viability (log2): inactive: 0.111
[8]
  cell viability (log2): inactive: 0.0341
